Test results taken from paper PMC10726135.
The other results are listed elsewhere or left out. At the low end of the ranking the order means little. Measured with an extract: partners may take part in the binding.

Target: T1, HNF4alpha8 (COS-7 nuclear extract) (UniProt P41235-5)
T1 sequence: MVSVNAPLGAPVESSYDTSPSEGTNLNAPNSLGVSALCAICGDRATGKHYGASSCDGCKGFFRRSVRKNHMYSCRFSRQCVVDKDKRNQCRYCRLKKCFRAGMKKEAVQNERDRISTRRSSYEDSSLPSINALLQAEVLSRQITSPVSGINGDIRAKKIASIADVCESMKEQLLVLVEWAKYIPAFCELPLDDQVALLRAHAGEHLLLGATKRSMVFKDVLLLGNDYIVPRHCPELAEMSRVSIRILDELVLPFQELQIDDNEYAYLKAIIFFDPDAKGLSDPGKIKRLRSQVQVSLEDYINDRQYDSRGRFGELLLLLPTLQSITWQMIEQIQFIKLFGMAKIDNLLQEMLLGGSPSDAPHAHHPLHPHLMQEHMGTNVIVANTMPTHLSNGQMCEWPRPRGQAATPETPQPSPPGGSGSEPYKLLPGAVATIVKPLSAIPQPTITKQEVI
Experiment: protein-binding microarray
Details: COS-7 nuclear extract on double-stranded Agilent 4x180k PBM; binding buffer, salt, pH and temperature not given; high values mean tight binding; double strand, one strand shown; sequences stand for … in …GCCTAGGGAGATTAGAGTATCGGTCGA

Sequence | binding signal (log2 normalized intensity)
TCTCGGTCAAACCTTTGACCCTTTATAATC | 6.91
ACAGGTGTGGGTTCAAATCCATTCAGCAGC | -0.121
GGCTTCTTATCAGCAGCTGGGGTGACTGAT | 0.592
TGCTCCAGGCCGGCTTGCGTCCCCAGGTGA | -1.28
AAGTCAGAGGCCCAGCAAGGAGAAAGCGAG | -1.4
ACTTAGGACACAAAGAGTTCAGAGAGGGAT | -1.02
TGAAGACAGGCCAGGGTGATCAAACATCAC | -1.35
CTGGCTGGGCAGGCTCCCTCCCTGGGAGGC | -1.21
CGCCGGGCGCCGCTCTGAGTGACCTTTCAC | 5.71
TCCAAAGGTAATGGTCTCTCCCAGCGGGTC | 0.65
TCATTCCTCAAATGCTCCTTTGAACAACTC | 1.05
CTTCAAACCTGGGAAAACTTACGCACATTA | -1.28
GTTAGTGCCCTCTGGTGGCACACAGAGGAC | 0.687
TTGAATTCCTTCTTCTTCTGGGGACTTCGG | 2.16
TGGACTTTTATGTTAAGATCAAACAGGGAC | 1.2
TGAAACATATCCAGAATGTGTTTGCTTTTT | 1
GGAGCATCTATTTTCTATTTCCACTGAGGT | 0.149
TAAAGTGACTAGAGAGCAGGAGCCACCTGT | -1.31
CCTCCTAAGTAGCCAAGATTACAGCCACAT | -1.21
ATTCCAAAAAGCTTTTGTCATGACCTTCGC | 5.07

Sequence | binding signal (log2 normalized intensity)
CCAGCCAGTAGGAGTTGGAACGGGGGCAAG | 0.853
TCTGATGGCGTATGCAGCAGGGCAGCAGCC | -0.926
GTAGAGAGCAGTCCTGCACATGAATGATCA | -0.324
TTTTGTAGATGCCTGCTTTCCACTCCCATT | 1.49
GGAGGTCTGGAATGTGGAGAATGGCAAGAG | -1.27
AACTTCTTATCACTTGGTGGACATGGTTCA | 2.38
CGTCAAGGTGAAAAGCCTTTTGAAGAAACC | -1.18
AGATGGCATCACTCTTGCCACAGAACAGGC | -1.29
CCACAGGTATTCTTTCATCCCTCTCCCGCC | 2.4
TTGTGCAAGAATGCGTCATCCGCATCTGAA | -1.37
CGCTGACTCCGGGGAGCAGGCAGAGGAACA | -1.26
GGACAGCAGAGTGGAGGCCAGCGCCAGGCT | -1.39
AGCCTTGAATTGGCATGAGATCCACCTAAG | -1.24
GGCATATCTTTTTATCTCTGAATCCTCAAC | 1.04
CGCTCCCCTCCCCCACCCGCGGTCCGTCCC | 5.77
AGGGAGGAGGGATCAAGCAGGTGACCTTCG | 4.02
TGCAGCCCACAGCCCGCTGTGCCTGTCACC | -1.14
CTAGCCCCGCCCAGATGTCTGGCTAAGACC | 3.43
GAACTGGTCCGGCCCGACTCACGACCCCGC | 2.48
GCTGATAATGGAATTGACATTCAATTGCAA | -1.31
